According to PubChem BioAssay (NCI):
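Test compounds were applied to cells in 96-well plates for 48 hours at 5 doses. At the GI50, growth is halved. TGI marks complete inhibition of growth.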

What follows are compounds tested on NCI-H322M lung (assay: NCI anticancer screen, dose series, 48 h).
`CN(C)c1nc(NCCNS(=O)(=O)c2ccc(C(=O)/C=C/c3ccccc3)cc2)nc(N2CCOCC2)n1` gave a GI50 of 14.8 µM and a TGI of 28.9 µM. Compound `CN(C)CCOc1ccc(C(=O)C2[C@H](c3ccc(Cl)cc3)[C@@H](c3ccccc3)NC23C(=O)Nc2ccc(Br)cc23)cc1` (stereo not given in full) has a GI50 of 2.26 µM and a TGI of 4.42 µM. In the case of `O=C1NC(=S)S/C1=C\c1cn(-c2ccccc2)nc1-c1ccc([N+](=O)[O-])cc1`, the GI50 is reported as 3.52 µM and the TGI is reported as 17.9 µM. In the case of `Cn1cc(-c2cc3nc(-c4cn(C)c5ncccc45)cc(N)n3n2)c2cc(F)ccc21`, the GI50 is reported as 17.9 µM and the TGI is reported as > 100 µM. `CN1CCN(C(=O)Oc2cc3c(c4ccccc24)[C@H](CCl)CN3C(=O)c2cc3cc(OCCCN4CCC4)ccc3[nH]2)[C@@H]2CSSC[C@H]21` was tested, and the GI50 was 0.00414 µM and the TGI was 0.0329 µM.
